Data set [1] in a line: FACS staining using DOTA-FITC: recruitment of Pb-DOTA-FITC to MKN-45 cells by SPLIT antibodies (Example 7). In kind it is binding. Conditions: antibodies 10 μg/mL final, 1 h 4° C.; Pb-DOTA-FITC equimolar; FIG. 24. Here is the method: (§1) MKN-45 cells were detached from the culture bottle using Trypsin and were counted using a Casy cell counter. After pelleting at 4° C., 300 g the cells were resuspended in FACS Buffer (2.5% FCS in PBS), adjusted to 2.0E+06 cells/mL dispensed to 96-well PP V-bottom-Platte (25 μL/well=5.0E+04 Zellen/well).
The CEA specific SPLIT antibodies (P1AF0712 or P1AF0713 respectively) were adjusted to 40 μg/mL in FACS buffer, resulting in a final concentration of 10 μg/mL. Both antibodies were added to the cells either combined or separated and followed by buffer and incubated at 4° C. for 1 h. Subsequently, Pb-DOTA labeled with FITC was added to the cells in equimolar ratio to the antibodies and incubated for 1 h at 4° C. The cells were then washed twice in FACS buffer and resuspended in 70 μl/well FACS buffer for measurement using a FACS Canto (BD, Pharmingen). […] Only a combination of both SPLIT halves was able to recruit Pb-DOTAM-FITC to the target cells (FIG. 24).
(§2) EC50 was determined for the SPLIT antibodies using either secondary antibody based detection (488, top panel) or Pb-DOTA-FITC (DOTA-FITC, bottom panel)

For data set [2], the target named is T1, CEA on MKN-45 cells (Homo sapiens, UniProt P06731).
T1 construct: endogenous in cells; host or cells: MKN-45 cells
T1 sequence (P06731 35-676): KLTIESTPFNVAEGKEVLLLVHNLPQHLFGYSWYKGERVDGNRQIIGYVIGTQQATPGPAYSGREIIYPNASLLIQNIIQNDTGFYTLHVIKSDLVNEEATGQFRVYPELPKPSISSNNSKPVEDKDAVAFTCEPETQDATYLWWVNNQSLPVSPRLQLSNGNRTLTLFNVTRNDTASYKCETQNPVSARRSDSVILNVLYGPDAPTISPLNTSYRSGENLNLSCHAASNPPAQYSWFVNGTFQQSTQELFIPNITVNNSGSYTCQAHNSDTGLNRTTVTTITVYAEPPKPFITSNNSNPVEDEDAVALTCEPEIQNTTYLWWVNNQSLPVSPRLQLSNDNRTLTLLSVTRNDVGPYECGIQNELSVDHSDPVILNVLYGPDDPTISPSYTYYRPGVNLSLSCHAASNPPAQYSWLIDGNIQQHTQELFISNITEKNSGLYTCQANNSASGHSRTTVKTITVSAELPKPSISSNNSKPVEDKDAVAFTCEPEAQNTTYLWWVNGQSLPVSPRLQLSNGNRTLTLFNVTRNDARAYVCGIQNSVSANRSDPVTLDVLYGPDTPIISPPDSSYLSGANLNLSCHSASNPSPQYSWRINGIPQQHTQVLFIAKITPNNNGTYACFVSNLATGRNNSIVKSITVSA
As to the kind of experiment: FACS staining using <huIgG(H+L)A488>: EC50 of SPLIT antibody binding to MKN-45 cells (Example 7). The conditions noted are these: secondary antibody <huIgG(H+L)>-Alexa488 10 μg/mL. Here is the method: as §1
The CEA specific SPLIT antibodies (P1AF0712 or P1AF0713 respectively) were adjusted to 40 μg/mL in FACS buffer, resulting in a final concentration of 10 μg/mL. Both antibodies were added to the cells either separated followed by buffer or combined and incubated at 4° C. for 1 h. The cells were then washed twice in FACS buffer. After washing, the cells were resuspended in 50 μL FACS-buffer containing secondary antibody (<huIgG(H+L)>-Alexa488, c=10 μg/mL) and incubated 1 h at 4° C. The cells were then washed twice in FACS buffer and resuspended in 70 μl/well FACS buffer for measurement using a FACS Canto (BD, Pharmingen).
as §2

Data set [3] can be described thus: Expression analysis (protein yield) of N-terminal fusion format split antibodies (Example 10). Conditions: HEK cell expression. From the text: In a first set, the VH and VL domain of the humanized DOTAM binder contained an N-terminal Q for the VH domain and an N-terminal A for the VL domain. In the second set, they contained an N-terminal G and S, respectively. It was observed that in this format, the antibody containing the VH domain of the humanized DOTAM binder was not successfully expressed with an N-terminal G but was successfully expressed with an N-terminal Q. G is not a typical residue at this position in a VH domain. An antibody containing the VL domain was successfully expressed with either an N-terminal S or A residue, both of which are typical residues at this position in a VL domain.

A short description of data set [4]: Biacore set-up 1 (Example 11): biotinylated Pb-DOTAM binding to captured N-terminal fusion hemibodies, read-out with monoStreptavidin. Conditions: 30 nM hemibody captured; 50 nM DOTAM, 200 nM monoStreptavidin; relative to reference CEA-DOTAM (PRIT-0213); FIG. 29, 30. Here is the method:
Two experimental set-ups were used. • 1. In a first experimental set-up, individual TA-split-DOTAM-VH and TA-split-DOTAM-VL antibodies were first captured on a chip using an immobilized anti-hFab, and then binding of the two enantiomers of biotinylated Pb-DOTAM was assessed.
The experiments were performed with Biacore T200 at 25° C. measuring temperature. All Biacore T200 experiments were carried out in HBS-P+(GE Healthcare, Br-1008-27) pH 7,4 running buffer. The 30 nM solution in HBS-P+ of Prodrug_A or Prodrug_B was injected over the anti hFc (GE Healthcare, BR-1008-39) CM5 Chip surface (10 μl/min, 60 sec). After high density capturing of Prodrug A or B solution the 50 nM DOTAM solution (10 μl/min, 120 sec) and then the 200 nM monoStreptavidin solution (10 μl/min, 90 sec) was injected. The dissociation was monitored for 120 sec at a flow rate of 10 μl/min. For new cycle the surface was regenerated by using of 3M MgCl2 and 60 sec regeneration time with. The relative response determination was evaluated by T200 evaluation software.

B1: P1AF0712: CEA (CH1A1A) SPLIT antibody with DOTA-VL; SEQ ID NO: 97, 98, light chain 103 (antibody)
heavy 1: QVQLVQSGAEVKKPGASVKVSCKASGYTFTEFGMNWVRQAPGQGLEWMGWINTKTGEATYVEEFKGRVTFTTDTSTSTAYMELRSLRSDDTAVYYCARWDFAYYVEAMDYWGQGTTVTVSSASTKGPSVFPLAPSSKSTSGGTAALGCLVKDYFPEPVTVSWNSGALTSGVHTFPAVLQSSGLYSLSSVVTVPSSSLGTQTYICNVNHKPSNTKVDKKV[human IgG1 Fc with changes skipped]
heavy 2: QVQLVQSGAEVKKPGASVKVSCKASGYTFTEFGMNWVRQAPGQGLEWMGWINTKTGEATYVEEFKGRVTFTTDTSTSTAYMELRSLRSDDTAVYYCARWDFAYYVEAMDYWGQGTTVTVSSASTKGPSVFPLAPSSKSTSGGTAALGCLVKDYFPEPVTVSWNSGALTSGVHTFPAVLQSSGLYSLSSVVTVPSSSLGTQTYICNVNHKPSNTKVDKKVEPKSCDKTHTCPPCPAPEAAGGPSVFLFPPKPKDTLMISRTPEVTCVVVDVSHEDPEVKFNWYVDGVEVHNAKTKPREEQYNSTYRVVSVLTVLHQDWLNGKEYKCKVSNKALGAPIEKTISKAKGQPREPQVCTLPPSRDELTKNQVSLSCAVKGFYPSDIAVEWESNGQPENNYKTTPPVLDSDGSFFLVSKLTVDKSRWQQGNVFSCSVMHEALHNHYTQKSLSLSPGGGGGSGGGGSGGGGSGGGGSQAVVIQESALTTPPGETVTLTCGSSTGAVTASNYANWVQEKPDHLFTGLIGGHNNRPPGVPARFSGSLIGDKAALTIAGTQTEDEAIYFCALWYSDHWVIGGGTKLTVL
light: DIQMTQSPSSLSASVGDRVTITCKASAAVGTYVAWYQQKPGKAPKLLIYSASYRKRGVPSRFSGSGSGTDFTLTISSLQPEDFATYYCHQYYTYPLFTFGQGTKLEIKRTVAAPSVFIFPPSDEQLKSGTASVVCLLNNFYPREAKVQWKVDNALQSGNSQESVTEQDSKDSTYSLSSTLTLSKADYEKHKVYACEVTHQGLSSPVTKSFNRGEC
As to B1, the “Pb-DOTA-FITC fluorescence signal on MKN-45 cells” value in data set [1] was “lack of Pb-DOTA binding capability”. Further, the “EC50 of binding to MKN-45 cells” value in data set [2] was “comparable”.

B2: P1AF0713: CEA (CH1A1A) SPLIT antibody with DOTA-VH-AST; SEQ ID NO: 100, 101, light chain 103 (antibody)
heavy 1: QVQLVQSGAEVKKPGASVKVSCKASGYTFTEFGMNWVRQAPGQGLEWMGWINTKTGEATYVEEFKGRVTFTTDTSTSTAYMELRSLRSDDTAVYYCARWDFAYYVEAMDYWGQGTTVTVSSASTKGPSVFPLAPSSKSTSGGTAALGCLVKDYFPEPVTVSWNSGALTSGVHTFPAVLQSSGLYSLSSVVTVPSSSLGTQTYICNVNHKPSNTKVDKKVEPKSCDKTHTCPPCPAPEAAGGPSVFLFPPKPKDTLMISRTPEVTCVVVDVSHEDPEVKFNWYVDGVEVHNAKTKPREEQYNSTYRVVSVLTVLHQDWLNGKEYKCKVSNKALGAPIEKTISKAKGQPREPQVCTLPPSRDELTKNQVSLSCAVKGFYPSDIAVEWESNGQPENNYKTTPPVLDSDGSFFLVSKLTVDKSRWQQGNVFSCSVMHEALHNHYTQKSLSLSPG
heavy 2: QVQLVQSGAEVKKPGASVKVSCKASGYTFTEFGMNWVRQAPGQGLEWMGWINTKTGEATYVEEFKGRVTFTTDTSTSTAYMELRSLRSDDTAVYYCARWDFAYYVEAMDYWGQGTTVTVSSASTKGPSVFPLAPSSKSTSGGTAALGCLVKDYFPEPVTVSWNSGALTSGVHTFPAVLQSSGLYSLSSVVTVPSSSLGTQTYICNVNHKPSNTKVDKKV[human IgG1 Fc with changes skipped]GGGGSGGGGSGGGGSGGGGSHVKLQESGPGLVQPSQSLSLTCTVSGFSLTDYGVHWVRQSPGKGLEWLGVIWSGGGTAYNTALISRLNIYRDNSKNQVFLEMNSLQAEDTAMYYCARRGSYPYNYFDAWGQGTTVTVSSAST
light: DIQMTQSPSSLSASVGDRVTITCKASAAVGTYVAWYQQKPGKAPKLLIYSASYRKRGVPSRFSGSGSGTDFTLTISSLQPEDFATYYCHQYYTYPLFTFGQGTKLEIKRTVAAPSVFIFPPSDEQLKSGTASVVCLLNNFYPREAKVQWKVDNALQSGNSQESVTEQDSKDSTYSLSSTLTLSKADYEKHKVYACEVTHQGLSSPVTKSFNRGEC
Turning to B2, in data set [1], the “Pb-DOTA-FITC fluorescence signal on MKN-45 cells” value is recorded as “lack of Pb-DOTA binding capability”. In addition, the “EC50 of binding to MKN-45 cells” value in data set [2] is on record as “comparable”.

B3: P1AG1806: TA-split-DOTAM-VH hemibody having an N-terminal fusion format as shown in FIG. 25C (antibody)
heavy: QVQLVQSGAEVKKPGASVKVSCKASGYTFTEFGMNWVRQAPGQGLEWMGWINTKTGEATYVEEFKGRVTFTTDTSTSTAYMELRSLRSDDTAVYYCARWDFAYYVEAMDYWGQGTTVTVSSASTKGPSVFPLAPSSKSTSGGTAALGCLVKDYFPEPVTVSWNSGALTSGVHTFPAVLQSSGLYSLSSVVTVPSSSLGTQTYICNVNHKPSNTKVDKKV[human IgG1 Fc with changes skipped]
chain: QVTLKESGPVLVKPTETLTLTCTVSGFSLSTYSMSWIRQPPGKALEWLGFIGSRGDTYYASWAKGRLTISKDTSKSQVVLTMTNMDPVDTATYYCARERDPYGGGAYPPHLWGRGTLVTVSSGGGGSGGGGSGGGGSGGSGGDKTHTCPPCPAPEAAGGPSVFLFPPKPKDTLMISRTPEVTCVVVDVSHEDPEVKFNWYVDGVEVHNAKTKPREEQYNSTYRVVSVLTVLHQDWLNGKEYKCKVSNKALGAPIEKTISKAKGQPREPQVCTLPPSRDELTKNQVSLSCAVKGFYPSDIAVEWESNGQPENNYKTTPPVLDSDGSFFLVSKLTVDKSRWQQGNVFSCSVMHEALHNHYTQKSLSLSPGK
light: DIQMTQSPSSLSASVGDRVTITCKASAAVGTYVAWYQQKPGKAPKLLIYSASYRKRGVPSRFSGSGSGTDFTLTISSLQPEDFATYYCHQYYTYPLFTFGQGTKLEIKRTVAAPSVFIFPPSDEQLKSGTASVVCLLNNFYPREAKVQWKVDNALQSGNSQESVTEQDSKDSTYSLSSTLTLSKADYEKHKVYACEVTHQGLSSPVTKSFNRGEC
As to B3, the “Yield after Prot A” value in data set [3] (after Protein A affinity step) is reported as 88.4 mg/L. Besides, the “Final Yield” value in data set [3] (after final purification) is 13.9 mg/L. The “DOTAM binding (relative response)” value in data set [4] was “No DOTAM interaction”.

Source of the values: patent US20230272116A1, “ANTIBODIES WHICH BIND TO CANCER CELLS AND TARGET RADIONUCLIDES TO SAID CELLS” (Hoffmann-La Roche Inc., priority 2020, published 2023).
